Test results from PubChem BioAssay AID1508649 (National Center for Advancing Translational Sciences (NCATS), 2021).
In all, about 43,000 compounds went through this assay and about 830 (1.9%) were called active. This list was built around the results that the source calls inconclusive (neither active nor inactive); the mix of calls is not that of the screen. The calls were made as follows: active = clear falling dose curves in both reporters; inconclusive = both reporters move, but less clearly or upward; inactive = either reporter flat; the % is the NLuc reporter signal. No potency is given beside an inconclusive call; the fits are too rough.

Assay: Cell-based coincidence reporter assay to measure PMP22 gene transcription in S16 Pmp22-F2sN cells - Primary screen
Settings: S16 Pmp22-F2sN Schwann cells (luciferase reporters placed in the Pmp22 gene), FLuc/NLuc coincidence luminescence, 24 h; measured here: NLuc reporter readout, at 57.5 µM (top of the series)
Text: Assay Provider: Jim Inglese Ph.D. National Center for Advancing Translational Science, National Institutes of Health, Rockville, MD CMT is a heterogeneous group of neurological disorders that affect approximately 1 in 2,500 people. In particular, the most common form of CMT, CMT1A is genetically linked to the duplication of the PMP22 gene which leads to Schwann cell overexpression, thus manifesting itself as a typical case of dose-sensitive diseases. To identify small molecule compounds that can mediate the expression of PMP22 we developed a phenotypic assay screening strategy by utilizing genome editing techniques to construct Schwann cell lines containing novel reporter technology to monitor the transcriptional or translational regulation of PMP22. For high sensitivity we use a bioluminescent reporter system embedded in the 3' UTR of the PMP22 gene (S16(c9) Pmp22-F2sN) to identify compounds that inhibit gene expression. […] We can further discriminate the effect of all transcriptionally active molecules on PMP22 translation or stability with an assay that incorporates a short NLuc peptide (HiBiT) at the C-terminus of expressed PMP22 (S16(f8) PMP22-HiBiT) allowing alpha complementation and luminescence detection of membrane-associated PMP22 protein. These assays were screened against the NCATS Sytravon Library Collection. Miniaturization of these assays to 1536-well plate format for quantitative high throughput screening (qHTS) yielded rich data sets immediately from the qHTS assay (S16(c9) Pmp22-F2sN), when compared with data from a cell viability assay (Cell TiterGlo) to identify compounds that decreased the output signals through cellular toxicity to streamline the selection process of actives for subsequent characterization using the HiBiT assay (S16(f8) PMP22-HiBiT).
Cell-based coincidence reporter assay to measure PMP22 gene transcription in S16 Pmp22-F2sN cells PROTOCOL TABLE (format as described by Inglese J, Shamu CE and Guy RK. 2007) SEQUENCE No. (e.g., 1, 2, 3, etc.); […] (e.g., Cells, Incubation, Reagent, etc.); VALUE and DESCRIPTION. 1. Cells. Add 500-1,000 cells in 4 uL in growth media (DMEM High Glucose, No Phenol Red media + 10% heat-inactivated FBS + 1% Pen/Strep supplemented media) per well into Greiner 1536-well white/solid bottom high base, TC-treated plates. 2. Compounds. Library compounds and controls added at 23nL per well, transferred by Pin Tool. 3. Incubation. Incubate plates at 37C, 5% CO2, 95% RH for 24 h. 4. Reagent. Add 3.5uL Nano-Glo Dual-Luciferase Reporter Assay System reagent 1: Lysis and FLuc reagent per well of Greiner 1536-well plates. 5. Incubation. Incubate plates at room temperature for 10 min., protect from light. 6. Detector. FLuc luminescence measured using CCD-based camera (Viewlux). 7. Reagent. Add 3.5uL Nano-Glo Dual-Luciferase Reporter Assay System reagent 2: Stop&Glo reagent per well of Greiner 1536-well plates. 8. Incubation. Incubate plates at room temperature for 10 min., protect from light. 9. Detector. NLuc luminescence measured using CCD-based camera (Viewlux). NOTES (numbers refer to Sequence numbers above; values are from representative experiments) 6. Luminescence Read #1 (FLuc): Clear filter; Exposure = 10 sec, Gain = High, Speed = Slow, Binning = 2X 9. Luminescence Read #2 (NLuc): Clear filter; Exposure = 1 sec, Gain = High, Speed = Slow, Binning = 2X REFERENCES: 1. Inglese J, Shamu CE and Guy RK, Reporting data from high throughput screening of small molecule libraries, Nature Chemical Biology, 2007, 3(8): 438-441. doi.org/10.1038/nchembio0807-438 2. Yasgar A, Shinn P, Jadhav A, Auld DS, Michael S, Zheng W, Austin CP, Inglese J and Simeonov A, Compound Management for Quantitative High-Throughput Screening. J. Assoc. Lab. Auto., 2008, 13: 79-89. doi: 10.1016/j.jala.2007.12.004
Potency is read from the fitted curve at half-maximal effect; tags tell the direction and shape of the fitted curve.

Row | Structure (SMILES) | Potency
1 | Cc1ccc(NC(=O)N(Cc2ccc3c(c2)OCO3)C2CCN(Cc3ccccc3)CC2)cc1C | active: 14.1 µM
2 | Cc1cc(OCC(=O)N2CCN(CCc3ccccn3)CC2)cc(C)c1Cl | inconclusive [phenotype inactive, single point]
3 | Cn1cc(/C=C/c2nc3ccccc3c(=O)n2-c2ccccc2)c2ccccc21 | inconclusive [phenotype inactive, single point]
4 | O=C(Nc1ccc2c(c1)OCO2)c1cccn(Cc2cccc(F)c2)c1=O | inactive
5 | COc1ccccc1NC(=O)N(Cc1ccc2c(c1)OCO2)C1CCN(Cc2ccccc2)CC1 | inconclusive [phenotype inactive, single point]
6 | Cc1c(Cl)cccc1NC(=O)CN1C(=O)C(C)N=C(c2ccccc2)c2ccccc21 (stereo not given) | inconclusive [phenotype inactive, single point]
7 | COc1ccc(-c2nc(CN3C(=O)CN=C(c4ccccc4)c4cc(Cl)ccc43)c(C)o2)cc1 | inconclusive [phenotype inactive, single point]
8 | CCCC12CN3CC(CCC)(CN(C1)C3c1ccccn1)C2=O (stereo not given) | inconclusive [phenotype inactive, single point]
9 | Cc1ccc(-c2nc(CN3C(=O)CN=C(c4ccccc4Cl)c4cc(Cl)ccc43)c(C)o2)cc1 | inconclusive [phenotype inactive, single point]
10 | Cc1ccccc1-c1nn2c(=O)cc(CN3CCN(C(=O)COc4ccccc4Cl)CC3)nc2s1 | inconclusive [phenotype inactive, partial curve]
11 | Cc1cccc(OCC(=O)N2CCN(Cc3cc(=O)n4nc(-c5ccccc5Cl)sc4n3)CC2)c1 | inactive
12 | COc1ccc(NC(=O)CCc2nc(C3=CCN(Cc4cccc(Cl)c4)CC3)no2)c(OC)c1 | inconclusive [phenotype inactive, single point]
13 | COc1cccc(-c2nn3c(=O)cc(CN4CCN(C(=O)COc5ccccc5C)CC4)nc3s2)c1 | inconclusive [phenotype inactive, single point]
14 | Cc1ccccc1-n1c(/C=C/c2ccc(N(C)C)cc2)nc2ccccc2c1=O | inconclusive [phenotype inactive, single point]
15 | Cc1cccc(Cn2cccc(C(=O)Nc3ccc(F)cc3F)c2=O)c1 | inconclusive [phenotype inactive, single point]
16 | Cc1ccccc1Cn1cccc(C(=O)Nc2nc3ccccc3s2)c1=O | inactive
17 | Cc1cccc(CN2CC=C(c3noc(CCC(=O)Nc4ccc(C)c(F)c4)n3)CC2)c1 | inconclusive [phenotype inactive, partial curve, poor fit]
18 | Cc1ccc(Cl)cc1NC(=O)N(Cc1ccc2c(c1)OCO2)C1CCN(Cc2ccccc2)CC1 | inconclusive [phenotype inactive, single point]

Row | Structure (SMILES) | Potency
19 | COc1ccc(C)cc1NC(=O)N(Cc1ccc2c(c1)OCO2)C1CCN(Cc2ccccc2)CC1 | inconclusive [phenotype inactive, single point]
20 | Cc1ccc(Cn2cccc(C(=O)Nc3ccc4c(c3)OCO4)c2=O)cc1 | inconclusive [phenotype inactive, partial curve, poor fit]
21 | Cc1cc(-n2c(/C=C/c3cccs3)nc3ccccc3c2=O)ccc1Br | inconclusive [phenotype inactive, single point]
22 | O=c1c2ccccc2nc(/C=C\c2ccc(F)cc2)n1-c1ccccc1F | inconclusive [phenotype inactive, partial curve]
23 | Cc1ccc(-c2nc(CN3C(=O)CN=C(c4ccccc4)c4cc(Cl)ccc43)c(C)o2)cc1 | inconclusive [phenotype inactive, single point]
24 | CCC12CN3CC(CC)(CN(C1)C3c1ccccn1)C2=O (stereo not given) | inconclusive [phenotype inactive, single point]
25 | Cc1c(C(c2ccc(F)cc2)c2c(O)c3ccccc3oc2=O)c(=O)n(-c2ccccc2)n1C (stereo not given) | inactive
26 | O=C(COc1ccc(Cl)cc1)Nc1ccc(Cl)cc1C(=O)c1ccccc1 | inactive
27 | N#Cc1cc2c(nc1SCC(=O)Nc1cccc(F)c1)C1CCN2CC1 | inactive
28 | COc1cc(/C=C/c2nc3ccccc3c(=O)n2-c2ccc(Br)c(C)c2)ccc1O | inconclusive [phenotype inactive, single point]
29 | COc1ccc(-c2nn3c(=O)cc(CN4CCN(C(=O)COc5ccc(F)cc5)CC4)nc3s2)cc1 | inconclusive [phenotype inactive, full curve, poor fit]
30 | COc1ccc(NC(=O)CCc2nc(C3=CCN(Cc4cccc(C)c4)CC3)no2)c(OC)c1 | inconclusive [phenotype inactive, single point]
31 | Cc1ccccc1-n1nc(C)c2c1NC(=O)CSC2c1ccccc1C(F)(F)F (stereo not given) | inconclusive [phenotype inactive, single point]
32 | O=C(Nc1nc2ccccc2s1)c1cccn(Cc2ccccc2)c1=O | inactive
33 | Cc1ccc(-n2c(/C=C/c3ccccc3)nc3ccccc3c2=O)cc1C | inconclusive [phenotype inactive, single point]
34 | Cc1cccc(-n2c(CC3C(=O)Nc4ccc(C)cc43)nc3ccccc3c2=O)c1 (stereo not given) | inconclusive [phenotype inactive, single point]
35 | Cc1ccccc1-n1c(/C=C/c2ccccc2F)nc2ccccc2c1=O | inconclusive [phenotype inactive, single point]
